According to PubChem BioAssay AID652104 (National Center for Advancing Translational Sciences (NCATS), 2013):
Screen size: about 410,000 compounds; about 7,200 (1.8%) were called active. The inconclusive results got no clear call from the source; some entries with a clear call stand among them for comparison. The call rests on the fitted dose curve; in most records, active means well fitted activation curve with a large enough effect; inconclusive means small, poorly fitted or top-dose-only effect, or another doubt; inactive means no such curve, though single readings can be large or run the other way. Potencies of inconclusive entries are left out as doubtful fits.

Assay: qHTS of TDP-43 Inhibitors; further: nearly all actives have a fitted effect of over 50% in size; on growth rescue (activation): % of control where 0% means no effect
Conditions: TDP-43 expressing yeast growth rescue, BacTiter-Glo, 24 h; growth rescue (activation): at 46.1 µM (top of the series) unless noted
Outline: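 Cell-based yeast growth screen: TDP-43 expression induced in galactose, inoculum OD600=0.02 after raffinose pregrowth to mid-log. Read-out BacTiter-Glo luminescence at 24 hr, 30 deg C; inhibition of toxicity seen as signal increase.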
Potency means the concentration at half of the fitted maximal effect; tags describe the fitted curve by direction and shape.

| SMILES | Potency | growth rescue (activation) |
| --- | --- | --- |
| CNC(=O)COc1ccccc1C(=O)Nc1ccc2c(c1)oc1ccccc12 | inactive | – |
| CCCNC(=O)c1csc(Nc2cccc3ccccc23)n1 | active: 31.6 µM | – |
| COc1c2c(cc3oc(=O)ccc13)OC(C)(C)C=C2 | inconclusive [activator, partial curve] | – |
| Cc1ccc2nc(-c3ccccc3Cl)cc(C(=O)Nc3cc(C)on3)c2c1 | active: 17.8 µM | – |
| CC(C)Oc1ccc(/C=N/NC(N)=S)cc1 | inconclusive [activator, partial curve] | – |
| COc1ccc(-c2csc(N(CC3CCCO3)C(=O)c3ccco3)n2)cc1 (stereo not given) | inconclusive [activator, single point] | – |
| Cc1ccc(NC(=O)CN2C(=O)CCSc3ccccc32)c(C)c1 | active: 15.8 µM | – |
| O=C(/C=C/c1cccc([N+](=O)[O-])c1)OCC1CCCO1 (stereo not given) | inconclusive [activator, full curve, poor fit] | – |
| Cc1cc(C)c(NC(=O)CS(=O)CC(=O)NC2CCCc3ccccc32)c(C)c1 (stereo not given) | inconclusive [activator, partial curve, poor fit] | – |
| COC(=O)c1ccc(NC(=O)C(C)Sc2nc(=O)cc(N)n2CCc2ccccc2)cc1 (stereo not given) | inconclusive [activator, partial curve] | – |
| CCC(=O)Nn1cnc2c(c1=O)C1(CCCCC1)Cc1ccccc1-2 | inconclusive [activator, partial curve] | – |
| O=C(Nc1nc2cc3c(cc2s1)OCCO3)c1ccncc1 | inconclusive [activator, full curve] | – |
| NC(=O)c1cc(Cc2ccccc2)sc1NC(=O)c1ccco1 | inconclusive [activator, single point] | – |
| O=C1C2C(C(=O)N1/N=C/c1ccc([N+](=O)[O-])o1)C1C=CC2C12CC2 (stereo not given) | active: 17.8 µM | – |
| Cc1cnc(NC(=O)Nc2ccc(Cl)cc2)s1 | inconclusive [activator, partial curve] | – |
| COc1cccc(CNc2nc3cc(-c4ccc(F)cc4)sc3c(=O)n2C)c1 | inconclusive [activator, partial curve] | – |
| CCOc1ccc(C(=O)Nc2ccc(-c3cc4ccccc4oc3=O)cc2)cc1Br | inactive | – |
| Cc1ccc2c(CC(=O)Nc3nc(C)cs3)coc2c1 | active: 11.2 µM | – |
| Cc1nn(CCC(=O)Nc2ccc(Cl)cc2)c(C)c1S(=O)(=O)N1CCCCC1 | inactive | – |
| Cc1c(OCC(=O)OC(C)C)ccc2c3c(c(=O)oc12)CCC3 | inactive | – |
| CCOc1ccc2c(c1)-c1c(ssc1=S)C(C)(C)N2 | active: 22.4 µM | – |
| Cc1ccc([N+](=O)[O-])cc1Nc1nc(N2CCCC2)nc(N2CCCC2)n1 | inconclusive [activator, partial curve] | – |
| O=C(NCc1ccccc1)c1ccc(=O)oc1 | – | inactive: -17.6% [at 1.82 µM] |
| O=C(O/N=C/c1ccc2c(c1)OCO2)c1ccc([N+](=O)[O-])cc1 | inactive | – |

| SMILES | Potency | growth rescue (activation) |
| --- | --- | --- |
| CC(Nc1nc(-c2cccnc2)nc2ccccc12)c1ccc(F)cc1 (stereo not given) | inconclusive [activator, single point] | – |
| Cc1ccc(N2C(=O)C(Cl)=C(NCc3ccccc3)C2=O)c(C)c1 | inconclusive [activator, single point] | – |
| CCOC(=O)Cc1csc(NC(=O)CSc2nc(C)cc(=O)[nH]2)n1 | inconclusive [activator, partial curve, poor fit] | – |
| CCOC(=O)c1ccc(NS(=O)(=O)c2ccc(-c3coc(C)n3)cc2)cc1 | inconclusive [activator, partial curve] | – |
| CC(C)c1onc(C(=O)NCc2ccc(Cl)cc2)c1[N+](=O)[O-] | inconclusive [activator, partial curve, poor fit] | – |
| CC(C)=CCC/C(C)=C/CNC(=O)C[C@H]1C[C@H](C(=O)N(C(C)C)C(C)C)[C@@]2(C)c3[nH]c4cc(CCC(=O)N(C)C)ccc4c3CCN2C1=O | inconclusive [activator, single point] | – |
| Fc1ccc(NC(=S)N2N=CCC2c2ccccc2)cc1 (stereo not given) | inconclusive [activator, partial curve] | – |
| COc1ccc(N2CCN(c3ccc(C(=O)O)cc3[N+](=O)[O-])CC2)cc1 | – | inconclusive: 98.2% [activator] |
| O=C(c1ccncc1)N1CCN(c2cc(-c3ccccc3)nc3cc(-c4cccc(Cl)c4)nn23)CC1 | inconclusive [activator, full curve] | – |
| O=C(NCc1ccccc1)c1cccn1-c1nnc(N2CCCCC2)s1 | inactive | – |
| O=C(NCC(=O)N1CCC(Cc2ccccc2)CC1)c1ccc(Cl)cc1 | inconclusive [activator, single point] | – |
| O=C(N/N=C/c1ccc(-c2ccc(S(=O)(=O)Nc3ncccn3)cc2)o1)c1cc2ccccc2cc1O | inactive | – |
| O=C1C=C(c2ccccc2)CCC1 | inconclusive [activator, partial curve] | – |
| CC(=O)N1CCN(CCS(=O)(=O)c2cc(Cl)ccc2Cl)CC1 | inconclusive [activator, single point] | – |
| CCOC(=O)c1c(-c2cccs2)csc1NC(C)=O | inconclusive [activator, single point] | – |
| O=C(CSc1ncccn1)N1CCc2ccccc2C1 | inactive | – |
| O=C(Cn1cc(SCc2ccccc2Cl)c2ccccc21)N1CCOCC1 | inconclusive [activator, single point] | – |
| Cc1ccc(-c2nnc(NC(=O)c3ccco3)s2)cc1 | inactive | – |
| C=Cc1ccc(CN2C(=O)N(c3ccc(C)c(C)c3)S(=O)(=O)c3ccccc32)cc1 | inactive | – |
| CN(CC(=O)Nc1ccc(Cl)c(Cl)c1)Cc1nnc(-c2ccc(F)cc2)o1 | inconclusive [activator, single point] | – |
| OC(c1ccc(F)cc1)c1nc(-c2cccc(F)c2)cs1 (stereo not given) | active: 11.2 µM | – |
| CCN(C(=O)c1ccc(C(=O)N(CC)c2ccccc2C)cc1)c1ccccc1C | inconclusive [activator, partial curve] | – |
| COc1ccc(NC(=O)c2noc3c2CCCCC3)cc1 | inconclusive [activator, partial curve] | – |
| CCn1nccc1C(=O)Nc1ccc(S(=O)(=O)NC23CC4CC(CC(C4)C2)C3)cc1 | inactive | – |

| SMILES | Potency | growth rescue (activation) |
| --- | --- | --- |
| COc1ccc(OCC(=O)Nc2cccc3ncccc23)cc1 | inconclusive [activator, partial curve, poor fit] | – |
| CC1(C)Cc2c(sc3nc(-c4ccccc4Cl)n(N)c(=O)c23)CO1 | inconclusive [activator, single point] | – |
| O=c1c(Br)c(NCc2ccccc2)cnn1-c1ccc(F)cc1 | inconclusive [activator, single point] | – |
| CCOC(=O)C1=C(N)N2C(=O)C(C)SC2=C(C(=O)OCC)C1c1ccc(O)cc1 (stereo not given) | inconclusive [activator, single point] | – |
| CC1CCc2nn(CC(=O)NCCC3=CCCCC3)cc2C1 (stereo not given) | active: 17.8 µM | – |
| S=C(NCc1ccccc1)Nc1nccs1 | – | inconclusive: 43.1% [activator] |
| Oc1ccc(Br)cc1-c1cc(-c2ccccc2)n[nH]1 | inactive | – |
| O=C(CSc1nccn1Cc1ccc2c(c1)OCO2)Nc1ccccc1F | inconclusive [activator, partial curve, poor fit] | – |
| CCCn1c(=O)sc2cc(NC(=O)c3ccccc3Cl)ccc21 | inconclusive [activator, single point] | – |
| CCN(CC(=O)NCc1cccs1)C(=O)c1cccc(S(=O)(=O)Nc2ccccc2OC)c1 | inconclusive [activator, partial curve] | – |
| CC1CCc2c(sc(NC(=O)CN3CCN(C(=O)c4ccco4)CC3)c2C#N)C1 (stereo not given) | inconclusive [activator, partial curve] | – |
| COc1ccccc1CSc1ncc(-c2ccc([N+](=O)[O-])cc2)[nH]1 | inconclusive [activator, single point] | – |
| CC(C)c1cccc(C(C)C)c1Nc1cn[nH]c1 | active: 3.98 µM | – |
| CC1=Nc2cc(Cl)ccc2Oc2ccccc21 | inconclusive [activator, full curve, poor fit] | – |
| CCSc1ccccc1C(=O)N1CCN(c2nc3ccccc3s2)CC1 | active: 17.8 µM | – |
| Nc1c(Cl)c(Cl)nc(C(=O)OCC(=O)NC2CCCCC2)c1Cl | inconclusive [activator, partial curve] | – |
| N#Cc1c(-c2ccc(Cl)cc2)cc(-c2ccccc2)nc1SCC(=O)O | inactive | – |
| CC(C)(C)c1ccc(-c2noc(C(=O)NN)n2)cc1 | inconclusive [activator, single point] | – |
| COc1ccc(NC(=O)c2cc(-c3cc(C)cs3)[nH]n2)cc1OC | inconclusive [activator, partial curve] | – |
| Cc1cc(C(=O)OCC(=O)Nc2ccccc2[N+](=O)[O-])c2ccccc2n1 | inconclusive [activator, full curve, poor fit] | – |
| Cc1sc2nc(C(C)C)nc(SCC(=O)N3c4ccccc4CC3C)c2c1C (stereo not given) | inconclusive [activator, single point] | – |
| CCNc1nc(SCCOc2ccc(Cl)cc2Cl)nc(N(C)C)n1 | inconclusive [activator, single point] | – |
